# Reference: PubChem BioAssay (NCATS)
# The shares of active, inactive and inconclusive entries below differ from those in the screen. For some assays here: No potency is given beside an inconclusive call; the fits are too rough. Calls of active or inactive are those of the source. Unless noted, the call rests on the fitted dose curve; in most records, active means well fitted curve in the direction sought with a large enough effect; inconclusive means small, poorly fitted or top-dose-only effect, or another doubt; inactive means no such curve, though single readings can be large; an effect the other way counts as inactive or inconclusive.
# How the values were obtained:
# [1] = target: DNA polymerase eta (Homo sapiens) (UniProt Q9Y253); assay: qHTS for Inhibitors of Polymerase Eta: Confirmatory Assay for Cherry-picked Compounds (AID 720502); conditions: Pol eta primer extension, TAMRA/BHQ fluorescence, 10 min; further: potency means the concentration at half of the fitted maximal effect
# Chain of UniProt Q9Y253 (Q9Y253 whole entry, looked up): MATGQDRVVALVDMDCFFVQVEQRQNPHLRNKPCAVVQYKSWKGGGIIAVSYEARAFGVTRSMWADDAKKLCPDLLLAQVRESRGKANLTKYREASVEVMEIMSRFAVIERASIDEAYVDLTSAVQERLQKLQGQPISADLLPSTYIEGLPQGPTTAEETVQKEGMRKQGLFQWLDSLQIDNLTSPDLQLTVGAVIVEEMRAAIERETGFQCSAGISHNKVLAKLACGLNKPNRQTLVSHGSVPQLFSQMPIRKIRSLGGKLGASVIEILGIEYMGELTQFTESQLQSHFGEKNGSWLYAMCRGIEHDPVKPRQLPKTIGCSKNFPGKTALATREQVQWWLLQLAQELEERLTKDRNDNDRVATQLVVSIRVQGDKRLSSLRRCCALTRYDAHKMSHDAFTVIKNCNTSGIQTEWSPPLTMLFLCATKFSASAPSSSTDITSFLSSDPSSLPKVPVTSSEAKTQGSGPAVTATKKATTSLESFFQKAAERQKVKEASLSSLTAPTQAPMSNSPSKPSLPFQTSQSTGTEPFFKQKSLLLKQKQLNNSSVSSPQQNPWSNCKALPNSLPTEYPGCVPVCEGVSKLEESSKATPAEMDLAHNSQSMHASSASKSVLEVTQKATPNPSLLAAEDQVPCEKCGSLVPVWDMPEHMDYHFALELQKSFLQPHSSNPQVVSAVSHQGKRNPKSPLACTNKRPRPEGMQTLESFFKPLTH
# How it was run: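 The reaction starts with 50 nM final labeled DNA substrate added to Pol eta (10 nM) that had sat with compound for 15 min. TAMRA emission at 598 nm is read at 0 and 10 min.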
# [2] = target: Rap guanine nucleotide exchange factor 3 (Homo sapiens) (UniProt O95398); assay: Confirmatory qHTS for antagonist of cAMP-regulated guanine nucleotide exchange factor 3 (EPAC1) (AID 1645880); conditions: EPAC1 Rap1B-BODIPY-GDP exchange, fluorescence; series mostly up to 115 µM; further: nearly all actives have a fitted effect of over 55% in size; further: potency means the concentration at half of the fitted maximal effect
# Chain of UniProt O95398 (O95398 whole entry, looked up): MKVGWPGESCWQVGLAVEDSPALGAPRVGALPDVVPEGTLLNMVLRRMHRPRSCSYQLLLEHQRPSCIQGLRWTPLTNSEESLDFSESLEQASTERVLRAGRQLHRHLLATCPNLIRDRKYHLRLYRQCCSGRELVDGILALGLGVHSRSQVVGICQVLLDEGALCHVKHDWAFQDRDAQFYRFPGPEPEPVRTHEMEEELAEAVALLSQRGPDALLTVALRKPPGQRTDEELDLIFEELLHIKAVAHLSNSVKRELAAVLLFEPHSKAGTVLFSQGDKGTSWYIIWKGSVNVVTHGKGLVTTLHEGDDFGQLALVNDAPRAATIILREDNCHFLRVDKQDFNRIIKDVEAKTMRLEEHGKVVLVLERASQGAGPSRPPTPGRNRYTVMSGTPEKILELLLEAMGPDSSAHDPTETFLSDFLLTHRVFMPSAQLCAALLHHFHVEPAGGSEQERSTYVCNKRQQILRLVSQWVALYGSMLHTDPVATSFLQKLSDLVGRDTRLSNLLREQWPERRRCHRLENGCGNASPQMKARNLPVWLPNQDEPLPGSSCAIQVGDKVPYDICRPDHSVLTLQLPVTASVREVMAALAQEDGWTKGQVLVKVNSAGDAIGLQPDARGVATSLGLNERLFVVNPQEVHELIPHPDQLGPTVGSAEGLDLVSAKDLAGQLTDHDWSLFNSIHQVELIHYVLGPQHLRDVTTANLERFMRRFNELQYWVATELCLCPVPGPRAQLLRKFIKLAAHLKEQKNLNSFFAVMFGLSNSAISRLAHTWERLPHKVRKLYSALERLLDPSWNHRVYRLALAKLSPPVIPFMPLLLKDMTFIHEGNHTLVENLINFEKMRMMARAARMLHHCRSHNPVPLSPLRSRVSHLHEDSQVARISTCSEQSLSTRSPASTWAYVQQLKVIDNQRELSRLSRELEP
# How it was run: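 Released BODIPY-GDP fluoresces less than Rap1-bound BODIPY-GDP; the signal is followed at 480/540 nm at 5-min intervals over 30 min, after 5 min at room temperature. Reactions contain 100 nM EPAC1, 250 nM RAP1B-BODIPY-GDP and 50 uM GDP; results are normalized to ATA and DMSO.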
# [3] = target: Bifunctional 3'-5' exonuclease/ATP-dependent helicase WRN (Homo sapiens) (UniProt Q14191); assay: qHTS for Inhibitors of WRN Helicase: Confirmatory Assay for Cherry-picked Compounds. (AID 720497); conditions: WRN helicase DNA unwinding, fluorescence kinetic; series mostly up to 57.1 µM; further: potency means the concentration at half of the fitted maximal effect; nearly all actives have a fitted effect of over 65% in size
# Chain of UniProt Q14191 (Q14191 whole entry, looked up): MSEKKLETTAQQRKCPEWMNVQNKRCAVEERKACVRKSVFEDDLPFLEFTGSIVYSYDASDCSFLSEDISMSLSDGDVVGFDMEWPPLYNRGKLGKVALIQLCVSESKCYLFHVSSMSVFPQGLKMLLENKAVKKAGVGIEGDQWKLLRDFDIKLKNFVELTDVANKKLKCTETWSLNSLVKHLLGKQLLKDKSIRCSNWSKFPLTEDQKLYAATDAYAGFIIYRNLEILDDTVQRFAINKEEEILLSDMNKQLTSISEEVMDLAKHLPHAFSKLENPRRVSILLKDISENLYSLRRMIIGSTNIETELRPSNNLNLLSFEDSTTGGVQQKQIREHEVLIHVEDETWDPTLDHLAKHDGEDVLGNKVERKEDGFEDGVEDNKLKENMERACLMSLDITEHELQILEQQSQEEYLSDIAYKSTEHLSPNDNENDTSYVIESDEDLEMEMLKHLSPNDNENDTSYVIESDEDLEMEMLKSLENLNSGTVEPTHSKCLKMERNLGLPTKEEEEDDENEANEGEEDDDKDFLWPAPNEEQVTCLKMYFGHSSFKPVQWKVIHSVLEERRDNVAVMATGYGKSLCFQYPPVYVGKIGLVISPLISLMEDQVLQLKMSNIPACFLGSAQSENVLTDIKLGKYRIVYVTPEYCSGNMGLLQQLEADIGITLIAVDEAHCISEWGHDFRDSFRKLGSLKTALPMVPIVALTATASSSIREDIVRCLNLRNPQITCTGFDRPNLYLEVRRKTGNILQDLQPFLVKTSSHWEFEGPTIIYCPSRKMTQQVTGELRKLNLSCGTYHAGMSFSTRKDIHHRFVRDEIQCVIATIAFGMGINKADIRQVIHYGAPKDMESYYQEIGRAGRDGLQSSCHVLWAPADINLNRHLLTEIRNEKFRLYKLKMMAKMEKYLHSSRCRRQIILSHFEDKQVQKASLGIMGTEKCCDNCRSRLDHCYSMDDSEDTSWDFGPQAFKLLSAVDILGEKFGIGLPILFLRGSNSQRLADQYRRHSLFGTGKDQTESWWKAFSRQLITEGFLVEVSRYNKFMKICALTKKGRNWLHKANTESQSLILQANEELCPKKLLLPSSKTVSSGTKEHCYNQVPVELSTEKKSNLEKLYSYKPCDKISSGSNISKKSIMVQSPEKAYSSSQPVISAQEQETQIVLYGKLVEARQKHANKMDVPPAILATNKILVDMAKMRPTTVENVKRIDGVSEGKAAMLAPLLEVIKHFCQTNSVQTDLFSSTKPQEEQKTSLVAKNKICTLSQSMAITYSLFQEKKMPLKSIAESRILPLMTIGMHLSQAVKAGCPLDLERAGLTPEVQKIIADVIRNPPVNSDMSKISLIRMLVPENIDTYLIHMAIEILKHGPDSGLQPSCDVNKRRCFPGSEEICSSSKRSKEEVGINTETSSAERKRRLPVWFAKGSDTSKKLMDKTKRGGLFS
# How it was run: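 WRN (20 nM) was preincubated 15 min at RT with compound, then started with 100 nM forked duplex oligonucleotide and 2 mM ATP. Unwinding was read kinetically by red fluorescence (ex 525/em 598 nm), normalized to enzyme-free and uninhibited controls.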
# [4] = target: Rap guanine nucleotide exchange factor 3 (Homo sapiens) (UniProt O95398); assay: Confirmatory qHTS for agonist of cAMP-regulated guanine nucleotide exchange factor 3 (EPAC1) (AID 1645881); conditions: EPAC1 Rap1B BODIPY-GDP exchange fluorescence; activation: at 154 µM (top of the series), 100% = cAMP control response; further: nearly all actives have a fitted effect of over 75% in size; further: potency means the concentration at half of the fitted maximal effect;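 on activation: EPAC1 catalysed release of BODIPY-GDP from Rap1B seen as fluorescence loss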
# [5] = target: DNA polymerase iota (Homo sapiens) (UniProt Q9UNA4); assay: qHTS for Inhibitors of Polymerase Iota: Confirmatory Assay for Cherry-picked Compounds (AID 720496); conditions: Pol iota primer extension, TAMRA/BHQ fluorescence; further: potency means the concentration at half of the fitted maximal effect
# Chain of UniProt Q9UNA4 (Q9UNA4 whole entry, looked up): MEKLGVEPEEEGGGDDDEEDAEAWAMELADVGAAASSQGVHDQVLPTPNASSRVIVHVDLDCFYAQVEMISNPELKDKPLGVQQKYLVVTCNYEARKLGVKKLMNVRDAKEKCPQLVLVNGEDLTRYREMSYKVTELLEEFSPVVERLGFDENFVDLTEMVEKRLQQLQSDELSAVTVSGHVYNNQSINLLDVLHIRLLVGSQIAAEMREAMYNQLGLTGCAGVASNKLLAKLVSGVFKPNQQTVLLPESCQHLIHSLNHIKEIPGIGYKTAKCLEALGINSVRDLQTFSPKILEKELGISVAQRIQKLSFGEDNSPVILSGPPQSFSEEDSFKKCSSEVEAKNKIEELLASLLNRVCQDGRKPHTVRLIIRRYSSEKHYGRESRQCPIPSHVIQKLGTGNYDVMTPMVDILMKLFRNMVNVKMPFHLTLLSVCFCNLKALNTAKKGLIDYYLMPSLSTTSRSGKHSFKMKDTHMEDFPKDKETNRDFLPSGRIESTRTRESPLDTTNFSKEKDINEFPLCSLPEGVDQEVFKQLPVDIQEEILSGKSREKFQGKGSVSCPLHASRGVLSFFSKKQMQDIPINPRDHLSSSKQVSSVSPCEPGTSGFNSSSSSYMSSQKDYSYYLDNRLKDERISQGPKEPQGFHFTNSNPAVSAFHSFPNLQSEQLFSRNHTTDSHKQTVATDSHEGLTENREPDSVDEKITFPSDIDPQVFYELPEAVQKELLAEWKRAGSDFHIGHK
# How it was run: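 Kinetic fluorescence, 0 → 10 min, ex 525/em 598 nm. Pol iota 10 nM, 15 min RT preincubation with compound, then 50 nM (final) TAMRA/BHQ-2 primer-template substrate.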
# [6] = qHTS Assay for Identification of Small Molecule Agonists for Hypoxia Response Element Signaling Pathway (AID 914; active means well fitted activation curve with a large enough effect in the signal ratio, with a control signal flat, not every such curve was filed as active; inconclusive means small, poorly fitted or top-dose-only effect, or effect the other way, or a change in a side signal; the % refers to the signal ratio; further: top concentration of the series differs between compounds; % of control where 0% means no effect); conditions: ME-180 (cervical carcinoma) HRE-bla reporter, beta-lactamase ratio, CoCl2, 17 h; activation: hits give high values
# How it was run: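 Cells were plated overnight, pin-dosed with compound in a titration series, co-stimulated with EC50 CoCl2 and incubated 17 hours at 37 degrees Celsius. CCF4 substrate was then loaded, and AC50 values came from the 460nm/530nm ratio.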
# [7] = qHTS for Inhibitors of WRN Helicase: Thiazole Orange DNA Binding Counterscreen (AID 720499); conditions: thiazole orange DNA binding displacement, fluorescence; series mostly up to 57.1 µM;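 further: drop in dye fluorescence marks compound binding to DNA; potency means the concentration at half of the fitted maximal effect; nearly all actives have a fitted effect of over 60% in size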
# How it was run: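 Counterscreen to remove nonspecific DNA binders from WRN helicase hits. Compounds were incubated 15 min at room temperature with 50 nM DNA and 100 nM ThO, then fluorescence was recorded (480 nm excitation, 530 nm emission).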
# Tags describe the fitted curve by direction and shape.
smiles,measurement,setting,value
COc1ccc(C(CC(=O)N2CCOCC2)c2c(OC)cc(OC)c3c(-c4ccccc4)cc(=O)oc23)cc1 (configuration not stated),Potency,[1],"inconclusive [inhibitor, single point]"
same,Potency,[2],active: 37.9 µM
O=C(O)CN1C(=O)/C(=C\c2cc([N+](=O)[O-])ccc2OCc2ccccc2Cl)SC1=S,Potency,[1],"inconclusive [inhibitor, single point]"
same,Potency,[2],"inconclusive [inhibitor, partial curve]"
CCc1nnc(NC(=O)c2cc(-c3ccco3)nc3ccccc23)s1,Potency,[3],"inconclusive [inhibitor, partial curve]"
same,Potency,[2],active: 21.3 µM
C[n+]1cc(C(=O)N2CCCCC2)ccc1/C=C/c1c[nH]c2ccccc12,Potency,[4],active: 89.1 µM
CCN(CC)c1nc(SCC(=O)O)nc(N(CC)CC)n1,Potency,[4],inactive
CCc1ccc2oc(C(=O)Nc3ccccc3OC)cc(=O)c2c1,Potency,[4],inactive
CC(C)CCn1c(Oc2ccccc2F)nc2c1c(=O)n(C)c(=O)n2C,Potency,[4],"inconclusive [activator, single point]"
CC(=O)NC(c1ccc(C)cc1)c1cc(Cl)c2cccnc2c1O (configuration not stated),Potency,[4],inactive
COc1cccc(CN2CC(O)=C(c3nc(-c4ccc(Cl)cc4)cs3)C2=N)c1,Potency,[4],inactive
O=C(NCc1ccco1)c1c2c(nc3ccccc13)CCC2,Potency,[5],"inconclusive [inhibitor, partial curve]"
same,Potency,[2],"inconclusive [inhibitor, partial curve, poor fit]"
COc1cc(/C=C2/SC(=S)N(CC(=O)O)C2=O)ccc1OC(=O)c1cccs1,Potency,[3],"inconclusive [inhibitor, partial curve]"
same,Potency,[2],"inconclusive [inhibitor, partial curve, poor fit]"
O=c1c(-c2ccc(Cl)cc2)nc2cncnc2n1Cc1ccccc1Cl,activation,[6],inactive: 25.2%
same,Potency,[2],inactive
COc1cc(/C=C2\SC(=O)N(CC(=O)Nc3ccc(C)cc3)C2=O)cc(Cl)c1OCC(=O)O,Potency,[1],"inconclusive [inhibitor, single point]"
same,Potency,[2],"inconclusive [inhibitor, full curve, poor fit]"
CCOC(=O)N1CCN(C(=O)C(C)(C)Oc2ccc(Cl)cc2)CC1,Potency,[4],inactive
[O-][n+]1c2ccccc2[n+]([O-])c2cc(O)ccc21,Potency,[1],"inconclusive [inhibitor, single point]"
same,Potency,[2],active: 37.9 µM
Cc1ccc(C(=O)OCC(=O)c2ccc(CC(=O)N3CCOCC3)s2)c(C)c1,Potency,[1],"inconclusive [inhibitor, single point]"
same,Potency,[2],"inconclusive [inhibitor, single point]"
COc1ccc(OC)c(N2C(=O)[C@@H]3C(c4ccccc4Cl)=NO[C@@H]3C2=O)c1,Potency,[7],"inconclusive [inhibitor, partial curve]"
same,Potency,[2],"inconclusive [inhibitor, full curve, poor fit]"
COc1ccccc1/C=C1\SC(=S)N(CCC(=O)Nc2ccc(C(=O)O)c(O)c2)C1=O,Potency,[1],"inconclusive [inhibitor, single point]"
same,Potency,[2],"inconclusive [inhibitor, partial curve, poor fit]"
CCOc1ccc(NC(=O)CN(C)C(=O)c2cc3c(s2)CCC3)cc1OCC,Potency,[1],active: 33.8 µM
same,Potency,[2],active: 37.9 µM
Cc1cccc(C(=O)N=c2c(C#N)cc3c(=O)n4cccc(C)c4nc3n2Cc2ccco2)c1,Potency,[1],active: 42.6 µM
same,Potency,[2],"inconclusive [inhibitor, partial curve]"
CSCCC(NS(=O)(=O)c1ccc2c(c1)OCCO2)C(=O)N(C)Cc1ccc(F)cc1 (configuration not stated),Potency,[4],inactive
CC(C)(C)CNC(=O)c1cccc2c1C(=O)c1ccc(-c3cc4ccccc4o3)cc1S2(=O)=O,Potency,[4],"inconclusive [activator, partial curve]"
N#CC(Sc1ccccn1)c1ccc(Cl)cc1Cl (configuration not stated),Potency,[4],"inconclusive [activator, partial curve, poor fit]"
Cc1cccc(NC(=S)NC(=O)/C=C/c2ccco2)c1,Potency,[1],"inconclusive [inhibitor, single point]"
same,Potency,[2],active: 75.7 µM
Cc1ccc(NC(=O)CN2C(=O)N/C(=C/c3ccccc3OCc3cccc(C(=O)O)c3)C2=O)cc1,Potency,[1],"inconclusive [inhibitor, single point]"
same,Potency,[2],active: 31.6 µM
Cc1ccc(N=Cc2cc(Cc3ccccc3Cl)cc([N+](=O)[O-])c2O)c(O)c1,Potency,[7],"inconclusive [inhibitor, single point]"
same,Potency,[2],active: 10.7 µM
O=C(O)c1cccc(N2C(=O)c3cc([N+](=O)[O-])cc4cc([N+](=O)[O-])cc(c34)C2=O)c1,Potency,[1],active: 23.9 µM
same,Potency,[2],"inconclusive [inhibitor, full curve]"
CCc1cc(C(=O)N=Nc2c(O)[nH]c3ccc([N+](=O)[O-])cc23)c2ccccc2n1,Potency,[5],"inconclusive [inhibitor, partial curve]"
same,Potency,[7],active: 15.2 µM
same,Potency,[2],"inconclusive [inhibitor, full curve]"
